In PubChem BioAssay AID1814 (Broad Institute, 2009):
The campaign covered roughly 300,000 compounds. About 22,000 (7.3%) were called active. This list was built around the results that the source calls inconclusive (neither active nor inactive); the mix of calls is not that of the screen. Cut-off read from the data, not from the text of the source: active = activity score below about -60%; inconclusive = mostly about -28% to -61%; inactive = positive scores.

assay: Activators via SNCA 5'UTR binding, MLPCN (AID 1814); settings: alpha-synuclein 5'UTR reporter, activators screen; hits give low values; tested at 7.5 µM

Activity score, active:
Cc1ccc(CC(=O)c2ccc(Cl)cc2)cc1 -83.3%, Cc1ccc(-c2csc(NC(=O)c3ccno3)n2)cc1 -128%, COc1cc(/C=C2/C(=N)N3OC(C)=CC3=NC2=O)ccc1OCCOc1ccc(C)cc1 -75.3%, O=C(COc1ccccc1)Nc1ccccc1Cl -165%, O=C(NCc1cccs1)c1csc2ccccc12 -61.7%, CC(C)C(=O)OCC(=O)Nc1ccc(N=Nc2ccccc2)cc1 -186%, Cc1ccc(N/C=C/C(=O)c2cccs2)cc1C -180%, CCCCNC(=O)c1cc(-c2ccc3c(c2)OCO3)on1 -66%, O=C1NCCN/C1=C\C(=O)c1ccc(Cl)cc1 -109%, O=C(c1ccc(-c2ccccc2)cc1)N1CCCC1 -87.7%, O=C(CCC1CCCCC1)Nc1nccs1 -61.7%, COc1ccc(C(=O)C(CN2CCCC2)c2ccccc2)cc1 (configuration not stated) -112%, COc1cc(NC(=S)NC(=O)c2c(OC)cccc2OC)ccc1NC(=O)c1cccs1 -94.5%, C=CCN=Cc1sc2ccc(OCC)cc2c1O -115%, COCCNC(=O)/C(C#N)=C/c1cc(C)n(C2CCCCC2)c1C -101%, COc1ccccc1C(=O)Nc1ccc2oc(-c3ccc(F)cc3)nc2c1 -201%, CCOc1ccc(C(=O)OCC(=O)c2c(N)n(C)c(=O)n(C)c2=O)cc1OCC -118%

Activity score, inconclusive:
CC(=O)Nc1ccc(NC(=O)COC(=O)c2c(C)nn(-c3ccccc3)c2C)cc1 -53.2%, O=C(Nc1ccc(OCc2ccccc2)cc1)c1cccc([N+](=O)[O-])c1 -52.9%, COC(=O)C(CC(=O)c1ccc(Cl)cc1)c1ccc(C(C)C)cc1 (configuration not stated) -45.6%, COc1ccc(OCC(=O)Nc2ccc(N3CCOCC3)cc2)c([N+](=O)[O-])c1 -54.8%, COc1cc2c(cc1NC(=O)C(C)N1CCN(S(=O)(=O)c3ccccc3[N+](=O)[O-])CC1)oc1ccccc12 (configuration not stated) -60.6%, CC(C)CNC(=S)NC(=O)c1ccc(Cl)cc1Cl -37.1%, Cc1cc(C(=O)COC(=O)c2ccco2)c(C)n1Cc1ccco1 -42.3%, CC(=O)c1ccc(NC(=O)CCc2c(C)nn(-c3ccc(N4CCOCC4)nn3)c2C)cc1 -38.2%, N#C/C(=C/c1ccc(N2CCOCC2)o1)C(=O)NC1CCCCC1 -55.1%, COc1cc2c(cc1NC(=O)COC(=O)[C@@H](NS(=O)(=O)c1ccccc1)C(C)C)oc1ccccc12 -56.3%, Cc1ccc(NC(=O)c2ccc([N+](=O)[O-])cc2)cc1S(=O)(=O)N(C)C -55.1%, CCNC(=S)N/N=C/c1ccc(OCc2ccc(C(=O)OC)cc2)cc1 -47.5%, CC(C)Oc1ccc(C(=O)N2CCCc3ccccc32)cc1 -44.9%, COc1cc(OC)c(/C=N/NC(=O)c2ccc([N+](=O)[O-])cc2)cc1Br -32.8%, CC1=NN(c2nc3ccccc3s2)C(O)(C(F)(F)F)C1 (configuration not stated) -59.6%, Cc1nn(-c2ccccn2)c2nc(-c3cccs3)cc(C(=O)NCc3ccco3)c12 -54.8%, O=C(CSCc1ccccc1Br)Nc1ccccc1 -48.7%, S=C(Nc1ccc(-c2nc3ccccc3[nH]2)cc1)Nc1cccnc1 -50.1%, CC(C)(C)c1ccc(NC(=O)N2CCCN(c3ccc([N+](=O)[O-])cn3)CC2)cc1 -33.2%, CCCOC(=S)NC(=O)c1sc2ccccc2c1Cl -48.7%, CNc1ccccc(C(=O)/C=C/c2ccccc2OC)c1=O -44.8%, CC1CC(=O)Nc2ccc([N+](=O)[O-])cc2N1C (configuration not stated) -42.4%, Cc1c(C(=O)N(C)C)sc(NC(=O)c2cccc([N+](=O)[O-])c2)c1C#N -51.5%, COc1ccc(-c2csc(C)n2)cc1Br -54.1%, Cc1ccc(NC(=O)c2cc(-c3ccc4c(c3)OCO4)on2)cc1 -44.5%, COc1ccc(NC(=O)C(c2ccccn2)N(C(C)=O)c2ccc(C)cc2)cc1 (configuration not stated) -56.2%, C=C(C)C(=O)OC1(C(F)(F)F)Oc2cc(C)ccc2NC1=O (configuration not stated) -54.4%, O=C(Nc1sc2c(c1C(=O)O)CCC2)c1cccc(Cl)c1 -59.8%, COc1ccc(NC(=S)Nc2cccc(C(F)(F)F)c2)c(C)c1 -56.2%, COc1ccc(/C=C2/C(=O)C(C)(C(C)C)CCC2C)cc1 (configuration not stated) -51.9%, CC(=O)Oc1ccc(/C=C2/CCc3ccccc3C2=O)cc1 -50%, Cc1cccc(-n2cc(CNCCN3CCOC3=O)c(-c3cccc(F)c3)n2)c1 -55%, O=C(COc1ccccc1)Nn1cnc2ccccc21 -48.5%, COc1ccc2c(c1OC)C(=O)OC2Nc1nc(-c2ccc([N+](=O)[O-])cc2)cs1 (configuration not stated) -56.5%, CC(C)(C)CC(=O)Nc1ccc(Nc2ccccc2)cc1 -60.6%, Cc1ccccc1N=C1c2cc([N+](=O)[O-])ccc2-c2ncccc21 -26.6%, COc1ccc(C2C=C(Nc3ccccc3)C(=O)N2c2ccccc2)cc1OC (configuration not stated) -51.2%, Clc1ccccc1CSc1snnc1-c1ccccc1 -60.7%, CCOC(=O)n1ccc(C(=O)Nc2ccccc2F)n1 -59.3%, CN(Cc1ccccn1)Cc1nc(-c2ccc(Cl)cc2)no1 -61.1%, O=c1c2cc(N3CCOCC3)ccc2[nH]c(=S)n1CCc1ccccc1 -34.1%, COc1ccc(/C=C/C(=O)Nc2ccc(OC)nc2)cc1 -46%, CCCCOc1ccc(CSc2n[nH]c(C)n2)cc1 -54.5%, O=C1CCCN1CCCNc1ncnc2c1[nH]c1ccc(Cl)cc12 -58.6%, CO/N=C/C(C#N)=C/c1cc(C(=O)c2ccc(F)cc2)cn1C -18.6%, CCCCCOc1ccc(C(=O)NCC(=O)NCC(=O)OCC)cc1 -55.9%

Activity score, inactive:
COc1ccc(CNC(=O)C(C)Sc2nc3ccccc3c(=O)n2CCCN2CCOCC2)cc1 (configuration not stated) 38.4%, O=C(NNC(=O)c1ccccc1OCc1ccccc1)c1ccccc1O 64.9%, CC(C)c1nc2sc3c(NCc4ccco4)ncnc3c2c2c1COC(C)(C)C2 71%, Cc1ccc(Cn2ccc(=O)c(Cc3c(Cl)cccc3Cl)c2C)cc1 51%, CCOc1ccc(OCc2cccc(C(=O)N3CCCCCC3)c2)cc1 76%, COC(=O)CCn1nnc(-c2ccc(C(C)C)cc2)n1 119%, COc1ccc(NC(=O)C(=O)c2cn(CC(=O)N3CCCC3)c3ccccc23)cc1 105%, COc1ccc(C(=O)/C=C/C(=O)N(CC(=O)NC2CCCCC2)Cc2ccc(F)cc2)c(O)c1 71.8%, Cc1c(Cl)c([N+](=O)[O-])nn1Cc1ccc(C(=O)N/N=C\c2cc(Cl)ccc2O)o1 81.2%, O=c1c2ccccc2c(-c2ccc(O)cc2)nn1-c1cccc(C(F)(F)F)c1 52.2%, CC(=O)c1sc2c(c1OC(=O)c1ccc(Cl)cc1Cl)c(=O)n(-c1ccccc1)c(=S)n2-c1ccccc1 101%, Nc1ccc2c(c1)C(=O)C(=O)c1ccccc1-2 130%, O=C(N/N=C/c1ccc(Br)s1)c1ccc([N+](=O)[O-])cc1 84.4%, CC(=O)N(C1=C(N)C(=O)c2ccccc2C1=O)c1ccccc1 78.2%, Cn1c2ccccc2c(=O)c2cc(C#CC3(O)CCCCC3)ccc21 76.9%, C/C(=N/NC(=O)c1cc(C2CC2)[nH]n1)c1cccs1 84.3%, Cc1cccc2cc(C#N)c(SCC#N)nc12 84.9%, COc1ccc(O)c(C(=O)CC(=O)c2ccc(F)cc2)c1 73.3%, O=Cc1cc2ccccc2nc1SCc1ccc(Cl)cc1 95.2%, O=C(CSc1ccc2ccccc2c1Br)Nc1cccc(S(=O)(=O)NC2=NCCCCC2)c1 64.1%, CCn1c2ccccc2c2cc(Nc3cc(C)nc4ncnn34)ccc21 81.7%, O=C(Nc1nc(-c2ccccn2)cs1)c1cccc(-n2cnnn2)c1 82.7%, CC(C)CC(NC(=O)c1ccc(Cl)cc1)C(=O)OCC(=O)c1ccc2c(c1)NC(=O)CO2 (configuration not stated) 96%, CC1CCN(Cc2c(C(=O)N/N=C/c3cc(Br)ccc3O)nnn2-c2nonc2N)CC1 77.1%, C/C(=N\NC(=O)c1cc(-c2cccnc2)nc2ccccc12)c1ccc(O)cc1O 105%, CCOc1cc(/C=N/Nc2cccc(C(=O)O)c2)ccc1OC(=O)c1ccccc1 97.5%, Cc1ccoc1C(=O)Nc1ccc(CC(=O)O)cc1 83.9%, O=C(Nc1cc(S(=O)(=O)N2CCCCC2)ccc1Cl)c1ccccc1NS(=O)(=O)c1ccc(F)cc1 62.7%, O=C(O)c1cccc(N/N=C/c2ccc(OC(F)(F)F)cc2)c1 64.3%
